In PubChem BioAssay AID2546 (National Center for Advancing Translational Sciences (NCATS), 2010):
Screen size: about 310,000 compounds; about 11,000 (3.5%) were called active. The inconclusive results got no clear call from the source; some entries with a clear call stand among them for comparison. Calls follow the shape of the dose curve; as a rule, active = well fitted inhibition curve with a large enough effect; inconclusive = small, poorly fitted or top-dose-only effect, or effect the other way; inactive = flat fitted curve, though single readings scatter. No potency is given beside an inconclusive call; the fits are too rough.

Assay: VP16 counterscreen qHTS for inhibitors of ROR gamma transcriptional activity;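 also: Gal4-VP16 expression switched on by copper sulfate through the metallothionein promoter; nearly all actives have a fitted effect of over 50% in size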
Details: Drosophila S2 Gal4-VP16 UAS-luciferase, luminescence, 20 h; activity, negative = inhibition: at 53.6 µM (top of the series)
% is scaled to controls: 0 for no effect and ±100 for the full control effect; potency is read from the fitted curve at half-maximal effect; tags tell the direction and shape of the fitted curve.

Structure (SMILES)	Potency	activity, negative = inhibition
CCn1c(CN2CCN(c3ccc(Cl)cc3)CC2)nc2ccccc21	active: 8.91 µM	–
CC(C)COc1cccc(-c2cc(C(=O)N/N=C/c3ccncc3)c3ccccc3n2)c1	inconclusive [inhibitor, partial curve, poor fit]	–
COCCn1c(SCC#N)nnc1-c1ccccc1	–	inactive: -17.1%
CC(Cc1cccs1)NC(=S)Nc1ccc(F)cc1 (stereo not given)	active: 15.8 µM	–
CC1=C(/C=C/C(C)=C/C=C/C(C)=C/CO)C(C)(C)CCC1	inconclusive [inhibitor, single point]	–
Oc1ccc(N=C/C=C/c2ccc(Br)cc2)cc1-c1nc2ccccc2s1	inconclusive [inhibitor, single point]	–
COc1cc(NS(=O)(=O)c2ccc([N+](=O)[O-])cc2)c2ncccc2c1	active: 0.891 µM	–
C=CCn1c(CSCc2ccc(F)cc2)n[nH]c1=S	active: 3.55 µM	–
CCSc1nnc(NC(=O)CSc2nc3c(c(=O)n2CCOC)SC(C)C3)s1 (stereo not given)	inconclusive [inhibitor, single point]	–
CC(=O)c1cc2c(cc1N(C(=O)Cn1nnc3ccccc31)C(C(=O)NCCC(C)C)c1cccnc1)OCO2 (stereo not given)	–	inactive: -3.08%
CCCCOc1cccc(OCC(=O)Nc2nc3ccccc3[nH]2)c1	inconclusive [inhibitor, single point]	–
O=C(NC1CCCCC1)c1ccc2c(c1)OCCO2	inconclusive [inhibitor, full curve, poor fit]	–
Cc1cccc(-c2cc(C(=O)Nc3sc(C)c(C)c3C(N)=O)c3ccccc3n2)c1	inconclusive [inhibitor, single point]	–
CCOc1ccc(NC(=S)NC(=O)c2cccnc2)c([N+](=O)[O-])c1	active: 17.8 µM	–
Cc1ccc(C(C)C)c(OCc2ccc(C(=O)N/N=C/c3cccc(O)c3O)cc2)c1	active: 2.51 µM	–
COc1ccc(CNC(=O)[C@@H](C)NC(=O)[C@@H]2Cc3ccccc3CN2)cc1	–	inactive: -9.64%
CCn1ncc(/C=C/C(=O)Nc2c(C)nn(Cc3ccc(Cl)cc3Cl)c2C)c1C	inconclusive [inhibitor, single point]	–
CN(C)c1cc[n+](CC(=O)c2ccc(OC(F)F)cc2)cc1	inconclusive [inhibitor, single point]	–
CSc1ncccc1C(=O)NC1CCCc2c1cnn2-c1ccc(C)c(C)c1 (stereo not given)	inconclusive [inhibitor, partial curve]	–
CCn1c(NC(=O)c2cccs2)nc2ccccc21	active: 1.12 µM	–
O=[N+]([O-])c1ccc(N2N=C(c3ccccc3)CC2c2ccccc2O)cc1 (stereo not given)	inconclusive [inhibitor, single point]	–
CCc1c(C)nc(SC/C=C/c2ccccc2)[nH]c1=O	inconclusive [inhibitor, single point]	–
Cc1cccc(N2C(=O)C(Oc3ccc(Cl)cc3Cl)C2C=O)c1C (stereo not given)	inconclusive [inhibitor, single point]	–
COc1cc2c(cc1OC)C1=NC(=O)CN1C(SCc1ccccc1)=N2	–	inactive: -5.42%

Structure (SMILES)	Potency	activity, negative = inhibition
Cc1cccc(N2C(=O)C(Cl)=C(N3CCOCC3)C2=O)c1	inconclusive [inhibitor, partial curve, poor fit]	–
C=CCc1cccc(C2C(C)CCC3C(=O)N4C(Cc5c([nH]c6ccccc56)C4c4cc(OC)c(OC)c(OC)c4)C(=O)N32)c1 (stereo not given)	–	inactive: -6.86% [at 10 µM]
CN(C)CCCN(C(=O)CCOc1ccccc1)c1nc2ccc(F)cc2s1	active: 7.94 µM	–
CCOC(=O)Cc1csc(NC(=O)/C=C/c2ccccc2Cl)n1	inconclusive [inhibitor, partial curve]	–
Cc1ccc(O)c(N=Cc2sc3ccccc3c2Cl)c1	inconclusive [inhibitor, single point]	–
S=C(NCc1ccccc1)NC1CCCCC1	active: 17.8 µM	–
Cc1ccccc1Cn1nc(C)c(NC(=O)c2sc3ccccc3c2Cl)c1C	inconclusive [inhibitor, single point]	–
CCCCN(c1ccccc1)S(=O)(=O)c1cccc2cccnc12	active: 14.1 µM	–
Cc1nn(-c2ccccc2)c2[nH]c(C(F)(F)F)cc(=O)c12	inconclusive [inhibitor, single point]	–
COc1cccc2c(=O)cc(C)n(CC(=O)Nc3ccc(C)c(C)c3)c12	inconclusive [inhibitor, single point]	–
O=C(c1ccncc1)N1N=C(C2CCCCC2)CC1(O)C(F)(F)F (stereo not given)	inconclusive [inhibitor, single point]	–
COc1ccc(-c2csc3nc(C)nc(N4CCN(c5ccc(C(C)=O)cc5)CC4)c23)cc1OC	–	inactive: 0.613%
CCCCSc1nnc(CNC(=O)C23CC4CC(CC(C4)C2)C3)n1Cc1ccccc1	inconclusive [inhibitor, single point]	–
Cc1ccc(C)c(Cn2nnc3c(=O)[nH]c(C4CCN(S(=O)(=O)c5ccc(S(=O)(=O)NC6CC6)cc5)CC4)nc32)c1	inconclusive [inhibitor, single point]	–
CC1(C)CC(=O)C(C=Nc2ccc(NC3=C(C#N)C(=O)CC(C)(C)C3)cc2)=C(O)C1	–	inactive: 5.22%
Cc1cccc(/C=N\NC(=O)c2sccc2-n2cccc2)c1	inconclusive [inhibitor, single point]	–
CC(O)CNc1nc2c(c(=O)n(C)c(=O)n2C)n1C/C=C/c1ccccc1 (stereo not given)	inconclusive [inhibitor, single point]	–
Cc1cc(C)cc(NC(=O)Nc2ccccc2N2CCCCC2)c1	–	inactive: -8.07%
O=C(O)c1ccc(/C=C/C(=O)c2ccc3c(c2)OCCCO3)cc1	active: 10 µM	–
Cc1ncoc1C(=O)N1CCCC(C(=O)c2ccc(C(F)(F)F)cc2)C1 (stereo not given)	–	inactive: -5.19%
Cc1cc(C)n(CC(=O)N/N=C/c2ccc([N+](=O)[O-])s2)n1	–	inactive: 7.87%
Cc1ccc(CS(=O)(=O)c2ccc(C(=O)N3CCN(c4ccccn4)CC3)cc2[N+](=O)[O-])cc1	inconclusive [inhibitor, single point]	–
Cc1ccc(C2C(C(=O)c3cc4ccccc4o3)=C(O)C(=O)N2c2cc(C)on2)cc1 (stereo not given)	inconclusive [inhibitor, single point]	–
COc1ccc(NC(=S)NC(NC(=O)/C=C/c2ccccc2)C(Cl)(Cl)Cl)cc1 (stereo not given)	inconclusive [inhibitor, single point]	–

Structure (SMILES)	Potency	activity, negative = inhibition
Clc1ccc(C2=CC(c3ccco3)n3ncnc3N2)cc1 (stereo not given)	–	inactive: -17.5%
O=C(CNC(=O)c1ccc(F)cc1)c1ccccc1	inconclusive [inhibitor, single point]	–
CCC(C(=O)NC(C)(C)C)N(C(=O)c1ccc(Cl)nc1)C1CCCC1 (stereo not given)	–	inactive: -8.14%
CCCCCCCCOC(=O)CCn1[nH]c(=O)c2ccccc2c1=O	inconclusive [inhibitor, single point]	–
COc1cccc(-c2ccc(C#N)c(SCC(=O)NCCc3ccc(Cl)cc3)n2)c1	inconclusive [inhibitor, single point]	–
COc1ccc(-n2c(CN3CCN(Cc4ccccc4)CC3)nc3ccc([N+](=O)[O-])cc3c2=O)c(OC)c1	inconclusive [activator, single point]	–
Cc1cc(C)nc(N/N=C2/CCCC/C2=C\c2ccccc2)n1	active: 10 µM	–
Cc1cc(C)n(-c2nc(N(c3ccccc3)c3ccccc3)nc(-n3nc(C)cc3C)n2)n1	active: 5.62 µM	–
COc1ccc(C(=O)N2CCC3(CCN(Cc4nccs4)CC3)CC2)cc1	–	inactive: -2.46%
Cc1sc(NC(=O)CSc2nnc(COc3ccc(Cl)cc3)n2C)c(C#N)c1C	inconclusive [inhibitor, single point]	–
N#CC(C#N)=C1C=CC=CN1/C(=C\c1ccccc1)C(=O)c1cccs1	inconclusive [activator, single point]	–
O=C(N/N=C/c1sc(=O)n(Cc2ccc(Br)cc2)c1Cl)c1ccco1	inconclusive [inhibitor, single point]	–
Cc1sc2ccccc2[n+]1CC(=O)c1ccccc1	inconclusive [activator, single point]	–
Cc1cc(C)cc(NC(=O)N(C)Cc2ccccc2)c1	inconclusive [inhibitor, single point]	–
COc1ccc(C[C@H]2CN3C(=NC[C@@H]3C(C)C)N2CCNC(=O)CCC2CCCCC2)cc1	–	inactive: -8.16%
COC(=O)CCc1sc(Nc2ccc(Br)cc2)nc1-c1ccc(OC)cc1	inconclusive [inhibitor, single point]	–
CC1CCN(Cc2nc(Cl)c3c4c(sc3n2)CCC4)CC1	inconclusive [activator, single point]	–
O=C(C1CCC(=O)N(C2CC2)C1)N1CCC(Oc2cccc(F)c2)CC1 (stereo not given)	–	inactive: -11.8%
O=C(CSc1nc2ccccc2s1)NNC(=S)Nc1ccc(Br)cc1	inconclusive [inhibitor, single point]	–
CN1CCN(Cc2nc3ccccc3c(=O)n2Cc2nc(-c3ccc([N+](=O)[O-])cc3)cs2)CC1	active: 17.8 µM	–
OC(C#CCN1CCOCC1)(c1ccccc1)C1CCCCC1 (stereo not given)	inconclusive [inhibitor, single point]	–
S=C(c1ccc(-c2cccc(Cl)c2)o1)N1CCCCC1	inconclusive [activator, single point]	–
